# Data: PubChem BioAssay AID1963576 (National Center for Advancing Translational Sciences (NCATS), 2024)
# Out of some 46,000 compounds screened, about 60 (0.1%) were called active. Inconclusive results (about 3%) are left out. Calls come from the whole dose curve; as a rule, active = well fitted inhibition curve with a large enough effect; inconclusive = small, poorly fitted or top-dose-only effect; inactive = no such curve, though single readings can be large or run the other way. The list shows a part of the results.
# Assay: Primary qHTS assay for Inhibitors of ovarian cancer metastasis using an organotypic tumor microenvironment (TME) model.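 For activity change, negative = inhibition: plate controls were DMSO wells for no effect and tomatine positive control wells for full effect.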 Note: nearly all actives have a fitted effect of over 65% in size.
# Details: SKOV3ip1-GFP adhesion/invasion on 3D omental model, fluorescence; series mostly up to 45.8 µM; activity change, negative = inhibition: at the top concentration
# Outline: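 Adhesion/invasion was scored as fixed GFP-labeled SKOV3ip1 cell counts (488/509 nm), normalized to DMSO and tomatine controls. Cancer cells in serum-free medium, with four compound doses (0.36-46 umol/L), sat 2 hr at RT then 16 hr at 37 C on a 48 hr fibroblast/mesothelial/ECM culture.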
Compound,"activity change, negative = inhibition",outcome
CCOC(=O)c1sc(NC(=O)c2cc(CC)on2)c(C(=O)OCC)c1C,inactive: -3.72%,
Cc1cccc(N2C(=O)CSC23C(=O)N(Cc2cccc(C(F)(F)F)c2)c2ccccc23)c1 (centres undefined),inactive: 8.96%,
CCC(=O)N1CCc2cc(Br)cc(S(=O)(=O)NCc3ccc(Cl)cc3)c21,,inactive
CSc1nc2sc3c(c2c(=O)n1-c1ccccc1C)CCCC3,inactive: -1.57%,
Cc1ccc(N2CC(C)Cn3c2nc2c3c(=O)n(CC(=O)O)c(=O)n2C)cc1 (centres undefined),,inactive
CN(C)CCNC(=O)CCCN1C(=O)c2cccnc2Oc2ccc(Cl)cc21,inactive: 5.52%,
Cc1cc(C)cc(-n2ccn(CC(=O)Nc3ccccc3C(F)(F)F)c(=O)c2=O)c1,,inactive
O=C1CC(c2nc3ccccc3n2CCCOc2ccccc2)CN1c1ccc(F)cc1 (centres undefined),inactive: 4.7%,
CCN(c1ccccc1)c1nnc(NC(=O)Nc2cccc(Br)c2)s1,,inactive
COc1ccc(N2CCN(C(=O)c3ccc(CS(=O)(=O)c4ccc(Br)cc4)o3)CC2)cc1,inactive: 1.88%,
Cc1nc(N2CCCC2)c2c(C(=O)N3CCN(c4cccc(Cl)c4)CC3)c(C)oc2n1,inactive: 23.3%,
C=Cc1ccc(CSc2nc(-c3ccccc3Cl)nc3c2Cc2c(CO)cnc(C)c2O3)cc1,inactive: 5.8%,
C=C(C)[C@@H]1CC[C@]2(C)CC[C@]3(C)[C@H](CC[C@@H]4[C@@]5(C)CC[C@H](O)C(C)(C)[C@H]5CC[C@]43C)[C@@H]12,inactive: -3.08%,
Cc1ccc(CNC(=O)c2ccc(CSCc3ccc(C)cc3)o2)cc1,,inactive
CCOc1ccc(C2c3c(oc4ccc(C)cc4c3=O)C(=O)N2Cc2ccc3c(c2)OCO3)cc1OC (centres undefined),inactive: -7.44%,
CCN(c1ccc(OC)cc1)S(=O)(=O)c1nnc(NC(=O)c2ccccc2Cl)s1,,inactive
CCc1ccccc1NC(=O)CSc1ncc2c(n1)-c1ccccc1N(Cc1ccc(C)cc1)S2(=O)=O,inactive: 7.24%,
CCN(C(=O)Cn1ncc2c1-c1cc(C)ccc1OC2)c1cc(Cl)ccc1OC,,inactive
Cc1nc(-c2ccccc2)sc1CCNC(=O)c1ccco1,,inactive
CCOC(=O)c1ccccc1NS(=O)(=O)c1c(-c2ccc(C)cc2)csc1C(=O)OC,inactive: 2.63%,
COc1cccc(CNC(=O)CCc2c(C)c3cc4c(C)c(C)oc4cc3oc2=O)c1,,inactive
Cc1ccc(S(=O)(=O)c2cn(Cc3ccccc3)c3cc(N4CCCC4)c(F)cc3c2=O)cc1C,inactive: -9.44%,
CCN(Cc1ccccc1)C(=O)CCNS(=O)(=O)c1ccc2c(c1)CC(C)N2C(C)=O (centres undefined),inactive: 3.95%,
COc1ccccc1CNS(=O)(=O)c1c(C)nc2sccn2c1=O,inactive: -12.3%,

Compound,"activity change, negative = inhibition",outcome
CC(C)Oc1ccc(CNC(=O)c2ccc(NC(=O)c3nsc4ccccc34)cc2)cc1,inactive: -10.6%,
O=C(OCc1ccccc1Cl)c1ccc(-c2nnn(Cc3ccccc3)n2)cc1,inactive: 1.61%,
O=C(Nc1ccc(NC(=O)c2cccs2)cc1)c1ccc(Br)cc1,inactive: 3.53%,
CC(C)(C)C(=O)Nc1ccc2nc(SCC(=O)N3CCCC3)sc2c1,,inactive
Cc1ccc(C)c(NC(=O)C(=O)NCCc2csc(-c3ccc(C(F)(F)F)cc3)n2)c1,,inactive
COc1ccc(/C=C(/C#N)c2nc(-c3ccc(-c4ccccc4)cc3)cs2)cc1,inactive: -1.85%,
CCN(CCCNC(=O)c1cc2cc3cc(C)ccc3nc2s1)c1cccc(C)c1,inactive: 0.329%,
CCOC(=O)Cn1c(=O)cc(-c2ccccc2)c2c(C)nn(C)c21,inactive: 3.95%,
Cc1oc2ncnc(N3CCCCC3)c2c1C(=O)NCC1CCN(Cc2ccc(F)cc2)CC1,inactive: 9.55%,
Cc1nc(-c2ccccc2)sc1-c1ccc(SCC(=O)Nc2ccc(F)cc2F)nn1,inactive: -11.4%,
COc1ccc(OC)c(CCNC(=O)c2ccc(CS(=O)Cc3cccc(Cl)c3)o2)c1 (centres undefined),inactive: -4.65%,
Cc1ccccc1CSc1nc2nc(C)c(Cc3ccccc3)c(C)n2n1,,inactive
CCc1ccc(-n2nc(CO)c(C(=O)NCc3ccccn3)n2)cc1,inactive: 6.4%,
CCc1ccccc1N(CC)C(=O)c1cc2c(s1)-c1ccccc1OC2,inactive: -6.11%,
CCCCNc1nc(Oc2ccc(=O)n(-c3ccccc3)n2)nc(N(C)C)n1,inactive: -0.423%,
CC(Sc1oc(-c2ccco2)nc1S(=O)(=O)c1ccc(Br)cc1)c1ccccc1 (centres undefined),inactive: -5.78%,
COCCNc1nc(NCc2ccccc2OC)c2cnn(C)c2n1,,inactive
CCC(CC)c1nn2c(=O)cc(COc3ccc(NC(=O)c4ccc(Cl)cc4)cc3)nc2s1,inactive: 13.2%,
COc1ccc(-n2ncc(C(=O)N3CCN(c4ccccn4)CC3)c2C2CCN(C(=O)OC(C)(C)C)CC2)cc1,inactive: 3.4%,
Cc1nnc(N2CCN(c3ccccc3F)CC2)c2c1nnn2Cc1ccc(F)cc1,inactive: 5.73%,
CCOc1ccccc1NC(=O)C(NS(=O)(=O)c1cccc2nsnc12)c1ccccc1 (centres undefined),,inactive
CCC(C)NC(=O)c1ccc2c(c1)N(Cc1cccc(Cl)c1)C(=O)c1ccccc1S2=O (centres undefined),inactive: 1.34%,
COCCNC(=O)c1c(NC(=O)Cc2coc3cc(C)ccc23)sc2c1CCCC2,inactive: -3.49%,
O=C(CN(c1cccc(Br)c1)S(=O)(=O)c1ccccc1)N1CCc2ccccc2C1,inactive: 11.5%,

Compound,"activity change, negative = inhibition",outcome
COc1ccc(N2CCN(c3nc(-c4ccccc4F)nc4ccccc34)CC2)cc1,inactive: -4.14%,
CCOC(=O)c1cn(CC(=O)Nc2cccc(Cl)c2C)nn1,inactive: 7.02%,
COc1ccc(N2CCN(CCCNC(=O)c3cnn(-c4ccc(F)cc4)c3-n3cccc3)CC2)cc1,,inactive
CN(C(=O)c1nn(C)c2c1COc1ccccc1-2)c1cccc(C(F)(F)F)c1,inactive: -7.3%,
Cc1nn2c(=O)cc(COC(=O)c3ccccc3NC(=O)c3ccccc3C)nc2s1,inactive: -6.29%,
COc1cccc(OCc2nc3ccccc3n2CCOc2ccccc2)c1,inactive: 8.57%,
COc1ccc(NC(=O)Cc2coc3cc(C)cc(C)c23)c(OC)c1,inactive: 1.69%,
Cc1nc2ccn(Cc3ccco3)c(=O)c2cc1C(=O)N1CCN(c2ccccc2F)CC1,,inactive
COc1ccc2c(c1)c1c(c(=O)n(Cc3ccccc3)c(=O)n1Cc1cc(C)ccc1C)n2C,inactive: -29.6%,
Cc1ccc(C)c(OCCSc2nc3ccccc3n2CC(=O)N2CCOCC2)c1,inactive: -3.75%,
CCOC(=O)c1c(C)[nH]c(C)c1S(=O)(=O)N1CCC(C(=O)NCc2ccccc2)CC1,,inactive
COc1ccc(-c2ccc(NS(=O)(=O)c3ccc(F)c(C(F)(F)F)c3)cc2)nn1,inactive: -28.6%,
Cc1ccc(CN2CCCn3nc(C(=O)NCCN(C)C)cc3C2=O)cc1,inactive: 10.3%,
CCc1cccc(CC)c1NC(=O)c1cc(S(=O)(=O)N2CCc3ccccc32)cn1C,,inactive
COC(=O)c1c(NC(=O)CCCOc2ccc(C)cc2)sc2c1C(C(=O)OC)CC2 (centres undefined),inactive: -3.68%,
CCOC(=O)c1ccc2c(c1)N(Cc1cccc([N+](=O)[O-])c1)C(=O)c1ccccc1S2,inactive: 20.4%,
O=C(Cn1c(=O)nc(-c2ccccc2)c2cc(Cl)ccc21)NCc1ccccc1,inactive: 0.972%,
Cn1nc(-c2ccc(OCC(=O)Nc3ccccc3)cc2)c2ccccc2c1=O,,inactive
Cc1ccc(S(=O)(=O)N2CCCC(c3nc4c(nnn4Cc4ccc(OC(F)(F)F)cc4)c(=O)[nH]3)C2)cc1 (centres undefined),inactive: 6.17%,
CC(C)C[C@H](NC(=O)[C@H](CCc1ccccc1)NC(=O)CN1CCOCC1)C(=O)N[C@@H](Cc1ccccc1)C(=O)N[C@@H](CC(C)C)C(=O)[C@@]1(C)CO1,inactive: -4.68%,
CSc1cccc(N2C(=O)N(Cc3ccc([N+](=O)[O-])cc3)c3ccccc3S2(=O)=O)c1,inactive: 14.1%,
O=C1CC(c2nc3ccccc3n2Cc2c(F)cccc2Cl)CN1c1cccc(C(F)(F)F)c1 (centres undefined),inactive: -19%,
CCOC(=O)N1CCc2c(sc3c2c(=O)n(Cc2ccccc2)c(=O)n3Cc2c(F)cccc2Cl)C1,inactive: 8.16%,
CN(Cc1ccccc1)C(=O)c1cc2c(=O)n(C)c3ccccc3c2s1,inactive: -15.8%,

Compound,"activity change, negative = inhibition",outcome
COc1ccc(-n2c(C)c([N+](=O)[O-])c3ccc(O)cc32)cc1,inactive: -14%,
Cc1c(Cl)cccc1Nc1sc(C(=O)c2ccccc2)c(N)c1S(=O)(=O)c1ccccc1,,inactive
CC(=O)Cn1nnc2sc(-c3ccccc3)cc2c1=O,inactive: 8.92%,
COCCNC(=O)c1cc2n(n1)CCCN(Cc1ccc(C)cc1)C2=O,inactive: 8.17%,
COc1ccc(CC(=O)Nc2c(C(=O)Nc3ccccc3F)oc3ccccc23)cc1,inactive: -6.85%,
COc1ccc(NC(=O)CC2C(=O)N(c3ccc(C)cc3)C(=O)N2CCc2ccccc2)cc1 (centres undefined),inactive: 8.46%,
O=C(CC1C(=O)N(c2ccc(F)cc2)C(=O)N1Cc1cccnc1)Nc1ccc(F)cc1 (centres undefined),,inactive
Cc1ccccc1NC(=O)c1sc2nc(-c3ccncc3)ccc2c1N,inactive: 3.16%,
Brc1ccc(-c2cc3c(N4CCN(c5ccccc5)CC4)nccn3n2)cc1,,inactive
COc1cccc(CNC(=O)CCNS(=O)(=O)c2cccc3nsnc23)c1,,inactive
Cc1cc2ccccc2n1-c1ccc(C(=O)N2CCCCC2)s1,inactive: -9.92%,
Cc1nc(C)c(-c2ccc(SCC(=O)Nc3ccccc3F)nn2)s1,,inactive
COCCCNC(=O)CCCn1c(=O)c2cccn2c2cccnc21,inactive: -4.69%,
CCCN(CCC)CCCNC(=O)Cn1ncc2c3ccccc3n(Cc3ccc(F)cc3)c2c1=O,inactive: 0.697%,
CCCCOc1cccc(C(=O)Nc2cc3nn(-c4ccc(F)cc4)nc3cc2C)c1,inactive: 4.04%,
CCOC(=O)c1ccc(N2C(=O)c3n[nH]c(-c4cccs4)c3C2c2ccc(C)cc2)cc1 (centres undefined),inactive: -0.153%,
COc1cc(OC)cc(C(=O)Nc2ccc(S(=O)(=O)Nc3cc(C)nc(C)n3)cc2)c1,inactive: -22.6%,
CCOC(=O)c1[nH]c2ccccc2c1NC(=O)c1ccc(OC(C)C)cc1,,inactive
CCn1cc(S(=O)(=O)c2ccccc2)c(=O)c2cc(C)ccc21,inactive: -1.58%,
O=C(CSc1nccn1-c1ccc(Cl)cc1)Nc1nc2ccccc2s1,,inactive
COc1cc(NC(=O)c2cc3c(=O)oc4ccc(C)cc4c3s2)cc(OC)c1OC,,inactive
CC(C)(CC(=O)OCC(=O)Nc1ccc(F)c(Cl)c1)CC1=NS(=O)(=O)c2ccccc2N1,inactive: 7.77%,
